# Results reported in PubChem BioAssay AID2546 (National Center for Advancing Translational Sciences (NCATS), 2010).
# In all, about 310,000 compounds went through this assay and about 11,000 (3.5%) were called active. Inconclusive means that the source gave no clear call. Such entries were picked first, then a sample of the others. The call rests on the fitted dose curve; in most records, active means well fitted inhibition curve with a large enough effect; inconclusive means small, poorly fitted or top-dose-only effect, or effect the other way; inactive means flat fitted curve, though single readings scatter. Potencies of inconclusive entries are left out as doubtful fits.
# Assay: VP16 counterscreen qHTS for inhibitors of ROR gamma transcriptional activity;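 further: Gal4-VP16 expression switched on by copper sulfate through the metallothionein promoter; nearly all actives have a fitted effect of over 50% in size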
# Conditions: Drosophila S2 Gal4-VP16 UAS-luciferase, luminescence, 20 h; activity, negative = inhibition: at 53.6 µM (top of the series)
# On the % scale 0 is the no-effect control and ±100 the full control effect; potency means the concentration at half of the fitted maximal effect; tags describe the fitted curve by direction and shape.
Compound,"activity, negative = inhibition",Potency
CCCCN(C(=S)Nc1cccc(C)c1C)c1c(N)n(CCC)c(=O)[nH]c1=O,inactive: -0.822%,–
COc1cccc(OC)c1OCCCNC1CCCC1,inactive: -10.9%,–
C(=N/Nc1nc(-c2ccccc2)cc(-c2ccccc2)n1)/c1cccnc1,–,"inconclusive [inhibitor, single point]"
CN1CCN(c2ncnc3ccc(-c4ccccc4Cl)cc23)CC1,–,"inconclusive [inhibitor, single point]"
COc1cc(CCC(=O)Nc2nnc(-c3cccnc3)s2)cc(OC)c1OC,inactive: -7.26%,–
Cc1oc(-c2nc3ccccc3n2C)cc1C(=O)c1ccccc1,–,"inconclusive [inhibitor, single point]"
CC(=O)Nc1ccc(S(=O)(=O)Nc2ccc(Cl)cn2)cc1,inactive: 2.31%,–
O=C(O)CSc1c(-c2cccs2)[nH]c2ccccc12,inactive: -12.4%,–
CN(Cc1nc(Cc2ccccc2F)no1)Cc1cccc2ncccc12,–,"inconclusive [inhibitor, single point]"
CCC(C(=O)NCCc1ccc(C)cc1)n1nc(C)c2c(C)n(-c3ccccc3)nc2c1=O (centres undefined),–,"inconclusive [inhibitor, partial curve]"
Cc1cc(N2C(=O)C(O)=C(C(=O)c3cc4ccccc4o3)C2c2ccc(OC(C)C)cc2)no1 (centres undefined),–,"inconclusive [inhibitor, single point]"
CCN1C(=O)/C(=C2/Sc3ccccc3N2CC)S/C1=N\c1ncn[nH]1,–,active: 5.01 µM
CC(=O)COC(=O)c1cc(-c2ccc(C)cc2)nc2ccccc12,–,"inconclusive [inhibitor, partial curve]"
CCCn1c(C)cc(C(=O)COC(=O)c2c(C)nn(-c3ccccc3)c2C)c1C,–,"inconclusive [inhibitor, single point]"
CCn1c(=O)n(CC)c2cc(N3CCCC3)c(NC(=O)c3cccc(OC)c3)cc21,inactive: -6.11%,–
Cn1ccnc1-c1nc2ccccc2[nH]c1=O,–,active: 3.55 µM
COCc1ccc(CN2CCc3c([nH]c4ccccc34)C2C(C)(C)C)o1 (centres undefined),–,"inconclusive [inhibitor, single point]"
O=C(CC1S/C(=N/N=C/c2ccco2)NC1=O)Nc1cccc(Cl)c1Cl (centres undefined),–,"inconclusive [inhibitor, single point]"
COc1ccc(C(=O)Nc2ccc3ccccc3c2)cc1,–,"inconclusive [inhibitor, single point]"
COc1ccc(-n2c(Cc3cccn3C)nnc2SCC(=O)Nc2ccc(Cl)cc2)cc1,–,"inconclusive [inhibitor, single point]"
O=C(O)c1cc(C(=O)O)c(C(=O)N(Cc2cccc(Oc3ccccc3)c2)[C@H]2CCCc3ccccc32)cc1C(=O)O,inactive: 2.86%,–
Cc1cc(C)c2cc(CN(Cc3ccco3)C(=O)NCc3ccccc3)c(=O)[nH]c2c1,–,"inconclusive [inhibitor, single point]"
Cc1cc(NC(=O)c2ccc(Cl)cc2)cc(C)c1OCC(=O)N1CCOCC1,–,"inconclusive [inhibitor, single point]"
Cc1cc(=O)n(-c2ccc(C(=O)O)cc2)[nH]1,inactive: -12.7%,–
O=S(=O)(c1ccccc1)C1(C2CC(c3ccccc3)=NO2)CC(O)C1 (centres undefined),inactive: -8.39%,–

Compound,"activity, negative = inhibition",Potency
C/C(=N\NC(=O)c1ccc([N+](=O)[O-])cc1)c1c(O)cc(C)oc1=O,–,"inconclusive [inhibitor, partial curve]"
CCOc1ccc(Oc2ccc(C(F)(F)F)cc2N)cc1,–,"inconclusive [inhibitor, single point]"
CN(Cc1ccccc1)C(=O)CSc1cc(=O)n(C)c2ccccc12,–,"inconclusive [activator, single point]"
S=C(NCCC1=CCCCC1)NCc1ccco1,–,"inconclusive [inhibitor, single point]"
Cc1cccc(-n2[nH]c(C)c(C=Nc3ccc4[nH]c(=O)[nH]c4c3)c2=O)c1,inactive: -15%,–
O=c1onc(-c2c(F)cccc2F)n1-c1ccccc1Cl,inactive: 3.94%,–
COc1ccc(NC(=O)c2nc(SC)ncc2Cl)cc1,inactive: -10.7%,–
Cc1ccc(-c2csc(NC(=O)c3cccc(N4C(=O)CCC4=O)c3)n2)o1,–,"inconclusive [inhibitor, partial curve, poor fit]"
CC(=Nc1ccccc1O)c1sc2ccccc2c1O,–,"inconclusive [inhibitor, single point]"
O=c1[nH]c(NCCO)nc2c1C1(CCCCC1)Cc1ccccc1-2,–,"inconclusive [inhibitor, single point]"
Cc1cccc(NC(=S)N2CCC(c3nc4ccccc4s3)CC2)c1,–,"inconclusive [inhibitor, single point]"
Cc1nn(C(=O)c2ccc3c(c2)OCO3)c(N)c1-c1ccccc1,–,"inconclusive [inhibitor, single point]"
CC(C)(C)CC(C)(C)c1ccc(OCCO)cc1,–,"inconclusive [inhibitor, single point]"
Cc1ccc(C(C)C)c(OC/C(O)=C(\C#N)c2nc3ccccc3[nH]2)c1,–,"inconclusive [inhibitor, partial curve]"
CCOC(=O)c1nnc(-c2ccc(C)cc2)nc1Oc1ccccc1Cl,–,active: 6.31 µM
CN(C)S(=O)(=O)N1CCN(CC(=O)Nc2ccc(F)cc2)CC1,inactive: 27.5%,–
O=C(NCCc1ccccc1)Nc1cccc(Cl)c1,inactive: 7.1%,–
COc1cccc(/C=C/c2ccc3ccccc3n2)c1OC(C)=O,–,active: 5.01 µM
COCCCn1c(O)c(/C=C2\N=C(C#N)C(=Nc3ccc(C)cc3)O2)sc1=S,–,"inconclusive [inhibitor, single point]"
CCOC(=O)c1cccc(N)c1,inactive: -5.23%,–
CCC(=O)Oc1ccc(NC(=O)CSCc2ccccc2)cc1,–,"inconclusive [activator, full curve, poor fit]"
CCOc1cc(NC(=S)NCCOC)c(OCC)cc1NC(=O)c1cccs1,–,"inconclusive [inhibitor, single point]"
COc1ccc(N2CCN(C(=S)NC(=O)c3cccs3)CC2)c([N+](=O)[O-])c1,–,active: 1.41 µM
Cc1ccc(S(=O)(=O)Nc2ccccc2C(=O)N2CCOCC2)cc1,inactive: 1.86%,–
O=C(C1CCC1)N1CCN(c2ccc(C(F)(F)F)cc2[N+](=O)[O-])CC1,–,active: 3.98 µM

Compound,"activity, negative = inhibition",Potency
Cn1cccc1/C=N/NC(=O)c1cccc(OC(F)(F)C(F)F)c1,–,"inconclusive [inhibitor, single point]"
CCOC(=O)C1CCCN(C(=O)Cn2ncc3c([nH]c4ccc(C)cc43)c2=O)C1 (centres undefined),inactive: -17.2%,–
Cc1ccc(N2CCN(C(=S)Nc3ccccc3)CC2)cc1,–,"inconclusive [inhibitor, single point]"
Oc1cccc(C(Nc2nccs2)c2ccc3cccnc3c2O)c1 (centres undefined),–,active: 3.55 µM
CC(=O)c1ccc(-c2ccc(-c3cc(=O)oc4c(C(C)C)ccc(C)c34)cc2)cc1,–,active: 11.2 µM
O=C(CN1C2CCCC1CC(NC(=O)C1CCCCC1)C2)Nc1ccccc1C(F)(F)F (centres undefined),–,"inconclusive [inhibitor, single point]"
COCc1nnc(NC(=O)c2ccc(S(=O)(=O)N(C)Cc3ccccc3)cc2)o1,–,active: 2.24 µM
O=C(Nc1ccc(F)cc1)c1ccccc1F,inactive: 16.1%,–
CCOC(=O)c1cnc2c(OC)cccc2c1Nc1ccc2c(c1)OCCO2,–,active: 17.8 µM
Cc1ccccc1OCc1nc2ccccc2n1C,–,"inconclusive [inhibitor, single point]"
N#C/C(=N\Nc1ccccc1)C(=N)N1CCCCCC1,–,"inconclusive [inhibitor, single point]"
COc1ccc(Cc2nnc(N/N=C/c3ccccc3O)[nH]c2=O)cc1OC,–,"inconclusive [inhibitor, single point]"
CC(C)c1nc2cc(C(=O)N3CCNC(=O)C3c3ccc(F)cc3)ccc2o1 (centres undefined),–,"inconclusive [inhibitor, partial curve]"
COc1cc(/C=C/C2=NNC(=O)CC2)cc(OC)c1OC,inactive: 9.18%,–
O=Nc1c(O)n(Cc2ccc(Cl)c(Cl)c2)c2ccccc12,–,"inconclusive [inhibitor, single point]"
CCOc1ccc(-c2nnc(NC(=O)c3ccc(OCC(C)C)c(OC)c3)o2)cc1,–,active: 0.0251 µM
COc1ccc(C(=O)Nc2nc3ccccc3[nH]2)cc1S(=O)(=O)N1CCOCC1,inactive: -8.46%,–
COc1ccc(N/C=C(\C=C\C#N)S(=O)(=O)c2ccccc2)cc1,–,"inconclusive [activator, single point]"
COc1cc(OC)c2c(-c3cccc(-c4ccc(CO)cc4)c3)cc(=O)oc2c1,–,"inconclusive [inhibitor, single point]"
O=C(Nc1ccc(Cl)c(Cl)c1)Nc1ccccc1C(=O)O,–,"inconclusive [inhibitor, single point]"
O=C1C(Cl)=C(N2CCOCC2)C(=O)N1c1cccc(C(F)(F)F)c1,–,"inconclusive [inhibitor, single point]"
O=[N+]([O-])c1ccc(/C=N/N=C/c2ccc([N+](=O)[O-])o2)o1,–,active: 4.47 µM
CCOC(=O)c1c(NC(=O)CN(CC)CC)sc2c1CCC2,–,"inconclusive [inhibitor, single point]"
COc1cc2ccnc(Cc3cccc(OC)c3OC)c2cc1OC,–,"inconclusive [inhibitor, single point]"
